# Laboratory results from the supplement of paper PMC8728848.
# The list shows a part of the results.
# B1: SSA (Sclerotinia sclerotiorum), A7XUK7 (protein)
# chain: MGFKGVGTYEIVPYQAPSLNLNAWEGKLEPGAVVRTYTRGDKPSDNAKWQVALVAGSGDSAEYLIINVHSGYFLTATKENHIVSTPQISPTDPSARWTIKPATTHQYEVFTINNKVSELGQLTVKDYSTHSGADVLSASAKTADNQKWYFDAK
# Columns and labels:
# Test in all cases: glycan array binding signal (z-score within array); higher = stronger binding
# Settings in all cases: glycan notation: IUPAC condensed, linker removed
# [1] = biological target: Neu5Ac(a2-3)Gal(b1-4)GlcNAc6S
# Procedure, shortened: (§1)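 The Consortium for Functional Glycomics database supplied 3228 glycan arrays, of which those lacking an available protein sequence were dropped. The binding signal, a within-array Z-score, was averaged across arrays of the same protein sequence and across linkers. Negative scores can be read as non-binding.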
# [2] = biological target: Neu5Ac(a2-3)Gal(b1-4)[Fuc(a1-3)]GlcNAc
# Procedure, shortened: as §1
# [3] = biological target: Neu5Ac(a2-3)Gal(b1-4)[Fuc(a1-3)]GlcNAc(b1-3)Gal
# Procedure, shortened: as §1
# [4] = biological target: Neu5Ac(a2-3)Gal(b1-4)[Fuc(a1-3)]GlcNAc(b1-3)Gal(b1-4)GlcNAc
# Procedure, shortened: as §1
# [5] = biological target: Neu5Ac(a2-3)Gal(b1-4)[Fuc(a1-3)]GlcNAc(b1-3)Gal(b1-4)[Fuc(a1-3)]GlcNAc(b1-3)Gal(b1-4)[Fuc(a1-3)]GlcNAc
# Procedure, shortened: as §1
# [6] = biological target: Neu5Ac(a2-3)Gal(b1-4)[Fuc(a1-3)]GlcNAc(b1-6)[Gal(b1-3)]GalNAc
# Procedure, shortened: as §1
# [7] = biological target: Neu5Ac(a2-3)Gal(b1-4)[Fuc(a1-3)]GlcNAc(b1-6)[Neu5Ac(a2-3)Gal(b1-3)]GalNAc
# Procedure, shortened: as §1
# [8] = biological target: Neu5Ac(a2-3)Gal(b1-4)[Fuc(a1-3)]GlcNAc6S
# Procedure, shortened: as §1
# [9] = biological target: Neu5Ac(a2-3)Gal6S(b1-4)GlcNAc
# Procedure, shortened: as §1
# [10] = biological target: Neu5Ac(a2-3)Gal6S(b1-4)[Fuc(a1-3)]GlcNAc
# Procedure, shortened: as §1
# Neu5Ac(a2-3)GalNAc = biological target: Neu5Ac(a2-3)GalNAc
# Procedure, shortened: as §1
# [11] = biological target: Neu5Ac(a2-3)GalNAc(b1-4)GlcNAc
# Procedure, shortened: as §1
# [12] = biological target: Neu5Ac(a2-3)[GalNAc(b1-4)]Gal(b1-4)Glc
# Procedure, shortened: as §1
# [13] = biological target: Neu5Ac(a2-3)[GalNAc(b1-4)]Gal(b1-4)GlcNAc
# Procedure, shortened: as §1
# [14] = biological target: Neu5Ac(a2-3)[Neu5Ac(a2-6)]GalNAc
# Procedure, shortened: as §1
# Neu5Ac(a2-6)Gal = biological target: Neu5Ac(a2-6)Gal
# Procedure, shortened: as §1
# Neu5Ac(a2-6)Gal(b1-4)Glc = biological target: Neu5Ac(a2-6)Gal(b1-4)Glc
# Procedure, shortened: as §1
# [15] = biological target: Neu5Ac(a2-6)Gal(b1-4)GlcNAc
# Procedure, shortened: as §1
# [16] = biological target: Neu5Ac(a2-6)Gal(b1-4)GlcNAc(b1-2)Man(a1-3)Man(b1-4)GlcNAc(b1-4)GlcNAc
# Procedure, shortened: as §1
# [17] = biological target: Neu5Ac(a2-6)Gal(b1-4)GlcNAc(b1-2)Man(a1-3)[Gal(b1-4)GlcNAc(b1-2)Man(a1-6)]Man(b1-4)GlcNAc(b1-4)GlcNAc
# Procedure, shortened: as §1
# [18] = biological target: Neu5Ac(a2-6)Gal(b1-4)GlcNAc(b1-2)Man(a1-3)[GlcNAc(b1-2)Man(a1-6)]Man(b1-4)GlcNAc(b1-4)GlcNAc
# Procedure, shortened: as §1
# [19] = biological target: Neu5Ac(a2-6)Gal(b1-4)GlcNAc(b1-2)Man(a1-3)[GlcNAc(b1-2)Man(b1-4)GlcNAc(b1-2)Man(a1-6)]Man(b1-4)GlcNAc(b1-4)GlcNAc
# Procedure, shortened: as §1
# [20] = biological target: Neu5Ac(a2-6)Gal(b1-4)GlcNAc(b1-2)Man(a1-3)[Man(a1-6)]Man(b1-4)GlcNAc(b1-4)GlcNAc
# Procedure, shortened: as §1
# [21] = biological target: Neu5Ac(a2-6)Gal(b1-4)GlcNAc(b1-2)Man(a1-3)[Neu5Ac(a2-6)Gal(b1-4)GlcNAc(b1-2)Man(a1-6)]Man(b1-4)GlcNAc(b1-4)GlcNAc
# Procedure, shortened: as §1
# [22] = biological target: Neu5Ac(a2-6)Gal(b1-4)GlcNAc(b1-2)Man(a1-6)Man(b1-4)GlcNAc(b1-4)GlcNAc
# Procedure, shortened: as §1
# [23] = biological target: Neu5Ac(a2-6)Gal(b1-4)GlcNAc(b1-2)Man(a1-6)[Gal(b1-4)GlcNAc(b1-2)Man(a1-3)]Man(b1-4)GlcNAc(b1-4)GlcNAc
# Procedure, shortened: as §1
# [24] = biological target: Neu5Ac(a2-6)Gal(b1-4)GlcNAc(b1-2)Man(a1-6)[GlcNAc(b1-2)Man(a1-3)]Man(b1-4)GlcNAc(b1-4)GlcNAc
# Procedure, shortened: as §1
# [25] = biological target: Neu5Ac(a2-6)Gal(b1-4)GlcNAc(b1-2)Man(a1-6)[Man(a1-3)]Man(b1-4)GlcNAc(b1-4)GlcNAc
# Procedure, shortened: as §1
# [26] = biological target: Neu5Ac(a2-6)Gal(b1-4)GlcNAc(b1-3)Gal(b1-3)GlcNAc
# Procedure, shortened: as §1
# [27] = biological target: Neu5Ac(a2-6)Gal(b1-4)GlcNAc(b1-3)Gal(b1-4)GlcNAc
# Procedure, shortened: as §1
# [28] = biological target: Neu5Ac(a2-6)Gal(b1-4)GlcNAc(b1-3)Gal(b1-4)GlcNAc(b1-3)Gal(b1-4)GlcNAc
# Procedure, shortened: as §1
# [29] = biological target: Neu5Ac(a2-6)Gal(b1-4)GlcNAc(b1-3)Gal(b1-4)[Fuc(a1-3)]GlcNAc(b1-3)Gal(b1-4)[Fuc(a1-3)]GlcNAc
# Procedure, shortened: as §1
# [30] = biological target: Neu5Ac(a2-6)Gal(b1-4)GlcNAc(b1-3)GalNAc
# Procedure, shortened: as §1
# [31] = biological target: Neu5Ac(a2-6)Gal(b1-4)GlcNAc6S
# Procedure, shortened: as §1
# Neu5Ac(a2-6)GalNAc = biological target: Neu5Ac(a2-6)GalNAc
# Procedure, shortened: as §1
# [32] = biological target: Neu5Ac(a2-6)GalNAc(b1-4)GlcNAc
# Procedure, shortened: as §1
# [33] = biological target: Neu5Ac(a2-6)GlcNAc(b1-4)GlcNAc
# Procedure, shortened: as §1
# [34] = biological target: Neu5Ac(a2-6)GlcNAc(b1-4)GlcNAc(b1-4)GlcNAc
# Procedure, shortened: as §1
# Neu5Ac(a2-8)Neu5Ac = biological target: Neu5Ac(a2-8)Neu5Ac
# Procedure, shortened: as §1
# [35] = biological target: Neu5Ac(a2-8)Neu5Ac(a2-3)Gal(b1-4)Glc
# Procedure, shortened: as §1
# [36] = biological target: Neu5Ac(a2-8)Neu5Ac(a2-3)[GalNAc(b1-4)]Gal(b1-4)Glc
# Procedure, shortened: as §1
# [37] = biological target: Neu5Ac(a2-8)Neu5Ac(a2-8)Neu5Ac
# Procedure, shortened: as §1
# [38] = biological target: Neu5Ac(a2-8)Neu5Ac(a2-8)Neu5Ac(a2-3)Gal(b1-4)Glc
# Procedure, shortened: as §1
# [39] = biological target: Neu5Ac(a2-8)Neu5Ac(a2-8)Neu5Ac(a2-3)[GalNAc(b1-4)]Gal(b1-4)Glc
# Procedure, shortened: as §1
# [40] = biological target: Neu5Ac(a2-8)Neu5Ac(a2-8)Neu5Ac(a2-8)Neu5Ac(a2-3)[GalNAc(b1-4)]Gal(b1-4)Glc
# Procedure, shortened: as §1
# Neu5Ac(b1-6)GalNAc = biological target: Neu5Ac(b1-6)GalNAc
# Procedure, shortened: as §1
# [41] = biological target: Neu5Ac(b2-6)Gal(b1-4)GlcNAc
# Procedure, shortened: as §1
# Neu5Ac(b2-6)GalNAc = biological target: Neu5Ac(b2-6)GalNAc
# Procedure, shortened: as §1
# [42] = biological target: Neu5Ac9Ac(a2-3)Gal(b1-3)GlcNAc
# Procedure, shortened: as §1
# [43] = biological target: Neu5Ac9Ac(a2-3)Gal(b1-4)GlcNAc
# Procedure, shortened: as §1
# [44] = biological target: Neu5Ac9Ac(a2-6)Gal(b1-4)GlcNAc
# Procedure, shortened: as §1
# [45] = biological target: Neu5Gc(a2-3)Gal(b1-3)GlcNAc
# Procedure, shortened: as §1
# [46] = biological target: Neu5Gc(a2-3)Gal(b1-3)[Fuc(a1-4)]GlcNAc
# Procedure, shortened: as §1
# Neu5Gc(a2-3)Gal(b1-4)Glc = biological target: Neu5Gc(a2-3)Gal(b1-4)Glc
# Procedure, shortened: as §1
# [47] = biological target: Neu5Gc(a2-3)Gal(b1-4)GlcNAc
# Procedure, shortened: as §1
# [48] = biological target: Neu5Gc(a2-3)Gal(b1-4)[Fuc(a1-3)]GlcNAc
# Procedure, shortened: as §1
# [49] = biological target: Neu5Gc(a2-6)Gal(b1-4)GlcNAc
# Procedure, shortened: as §1
# Neu5Gc(a2-6)GalNAc = biological target: Neu5Gc(a2-6)GalNAc
# Procedure, shortened: as §1
# [50] = biological target: Neu5Gc(b2-6)Gal(b1-4)GlcNAc
# Procedure, shortened: as §1
binder,measurement,setting,value
B1,glycan array binding signal (z-score),[1],-0.028
same,glycan array binding signal (z-score),[2],-0.307
same,glycan array binding signal (z-score),[3],-0.355
same,glycan array binding signal (z-score),[4],-0.301
same,glycan array binding signal (z-score),[5],-0.248
same,glycan array binding signal (z-score),[6],-0.138
same,glycan array binding signal (z-score),[7],-0.065
same,glycan array binding signal (z-score),[8],0.027
same,glycan array binding signal (z-score),[9],-0.161
same,glycan array binding signal (z-score),[10],-0.211
same,glycan array binding signal (z-score),Neu5Ac(a2-3)GalNAc,-0.192
same,glycan array binding signal (z-score),[11],-0.127
same,glycan array binding signal (z-score),[12],-0.14
same,glycan array binding signal (z-score),[13],-0.13
same,glycan array binding signal (z-score),[14],-0.089
same,glycan array binding signal (z-score),Neu5Ac(a2-6)Gal,-0.181
same,glycan array binding signal (z-score),Neu5Ac(a2-6)Gal(b1-4)Glc,-0.226
same,glycan array binding signal (z-score),[15],-0.364
same,glycan array binding signal (z-score),[16],-0.135
same,glycan array binding signal (z-score),[17],-0.176
same,glycan array binding signal (z-score),[18],-0.226
same,glycan array binding signal (z-score),[19],-0.314
same,glycan array binding signal (z-score),[20],0.429
same,glycan array binding signal (z-score),[21],-0.226
same,glycan array binding signal (z-score),[22],-0.289
same,glycan array binding signal (z-score),[23],-0.252
same,glycan array binding signal (z-score),[24],-0.157
same,glycan array binding signal (z-score),[25],-0.249
same,glycan array binding signal (z-score),[26],-0.157
same,glycan array binding signal (z-score),[27],-0.31
same,glycan array binding signal (z-score),[28],0.022
same,glycan array binding signal (z-score),[29],-0.28
same,glycan array binding signal (z-score),[30],0.402
same,glycan array binding signal (z-score),[31],-0.34
same,glycan array binding signal (z-score),Neu5Ac(a2-6)GalNAc,-0.266
same,glycan array binding signal (z-score),[32],-0.208
same,glycan array binding signal (z-score),[33],-0.09
same,glycan array binding signal (z-score),[34],-0.205
same,glycan array binding signal (z-score),Neu5Ac(a2-8)Neu5Ac,-0.215
same,glycan array binding signal (z-score),[35],-0.07
same,glycan array binding signal (z-score),[36],-0.295
same,glycan array binding signal (z-score),[37],-0.257
same,glycan array binding signal (z-score),[38],-0.386
same,glycan array binding signal (z-score),[39],-0.369
same,glycan array binding signal (z-score),[40],-0.112
same,glycan array binding signal (z-score),Neu5Ac(b1-6)GalNAc,-0.458
same,glycan array binding signal (z-score),[41],-0.415
same,glycan array binding signal (z-score),Neu5Ac(b2-6)GalNAc,-0.258
same,glycan array binding signal (z-score),[42],-0.168
same,glycan array binding signal (z-score),[43],-0.177
same,glycan array binding signal (z-score),[44],-0.29
same,glycan array binding signal (z-score),[45],-0.331
same,glycan array binding signal (z-score),[46],-0.367
same,glycan array binding signal (z-score),Neu5Gc(a2-3)Gal(b1-4)Glc,-0.187
same,glycan array binding signal (z-score),[47],-0.366
same,glycan array binding signal (z-score),[48],-0.184
same,glycan array binding signal (z-score),[49],-0.202
same,glycan array binding signal (z-score),Neu5Gc(a2-6)GalNAc,-0.25
same,glycan array binding signal (z-score),[50],-0.243
